# Data reported in article PMC4336329 (PLoS ONE, 2015).
# In all, about 310,000 compounds went through this assay and about 2,200 (0.71%) showed an effect of 50% or more. The effect is printed as a negative number. The list shows a part of the results.
# Biological target: human ether-à-go-go-related gene (hERG) potassium channel (human, UniProt Q12809)
# Assay: primary screen, population patch clamp on CHO cells stably expressing hERG
# Chain of human ether-à-go-go-related gene (hERG) potassium channel (Q12809 whole entry, looked up): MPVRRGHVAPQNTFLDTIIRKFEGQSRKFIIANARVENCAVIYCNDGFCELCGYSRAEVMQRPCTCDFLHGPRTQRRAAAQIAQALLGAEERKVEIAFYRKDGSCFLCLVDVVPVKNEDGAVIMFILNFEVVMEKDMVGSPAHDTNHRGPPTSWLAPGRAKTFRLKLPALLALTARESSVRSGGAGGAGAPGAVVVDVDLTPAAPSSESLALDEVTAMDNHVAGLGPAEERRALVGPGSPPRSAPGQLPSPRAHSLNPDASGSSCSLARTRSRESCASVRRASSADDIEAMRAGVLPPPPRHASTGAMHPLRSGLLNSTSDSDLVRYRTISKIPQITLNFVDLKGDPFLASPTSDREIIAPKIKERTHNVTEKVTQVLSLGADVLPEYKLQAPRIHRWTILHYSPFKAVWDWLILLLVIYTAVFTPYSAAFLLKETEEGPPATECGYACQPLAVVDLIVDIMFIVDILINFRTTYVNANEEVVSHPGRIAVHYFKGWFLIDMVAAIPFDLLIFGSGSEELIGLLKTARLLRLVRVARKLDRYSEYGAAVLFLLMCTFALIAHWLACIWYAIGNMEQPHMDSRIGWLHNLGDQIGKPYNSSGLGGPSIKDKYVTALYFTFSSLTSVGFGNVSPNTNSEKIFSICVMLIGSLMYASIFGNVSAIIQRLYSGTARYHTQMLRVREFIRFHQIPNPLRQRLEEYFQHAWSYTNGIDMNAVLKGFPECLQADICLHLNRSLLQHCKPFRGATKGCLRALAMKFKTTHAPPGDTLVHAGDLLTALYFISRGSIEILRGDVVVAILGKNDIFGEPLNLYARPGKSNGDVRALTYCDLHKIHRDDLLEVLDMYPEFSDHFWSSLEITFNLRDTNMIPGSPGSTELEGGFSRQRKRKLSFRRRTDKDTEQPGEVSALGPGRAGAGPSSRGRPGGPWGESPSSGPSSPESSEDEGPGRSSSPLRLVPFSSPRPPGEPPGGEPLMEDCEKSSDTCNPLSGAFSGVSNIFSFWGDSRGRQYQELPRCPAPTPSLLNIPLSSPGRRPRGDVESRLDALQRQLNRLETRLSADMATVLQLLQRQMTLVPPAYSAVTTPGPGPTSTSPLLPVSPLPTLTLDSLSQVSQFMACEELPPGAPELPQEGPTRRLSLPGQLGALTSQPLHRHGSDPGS
row,SMILES,"hERG current change (%, negative = inhibition) at 1uM [%]"
1,O=c1[nH]c(CN2CC=C(c3ccccc3)CC2)nc2scc(-c3ccccc3)c12,7.46
2,COc1ccc2nc(NC(=O)CCc3ccc(OC)c(OC)c3)sc2c1,11.4
3,O=C(NCc1ccccc1)c1cc(-c2ccco2)on1,0.671
4,C=CCNC(=O)c1cccc(Br)c1,19.2
5,O=C1CC[C@@H](CN(Cc2ccccn2)Cc2nc(-c3ccc(C(F)(F)F)cc3)no2)N1,-19.6
6,O=C1c2ccccc2C(=O)N1c1ccc(Cc2ccncc2)cc1,5.56
7,CCSCc1nnc(SCC(=O)Nc2ccc(OC)cc2)n1C,6.11
8,CCc1ccc(N2C(=O)CN(Cc3cccs3)C2=S)cc1,9.98
9,CCCn1c(C2CCCN2c2nc(C)cs2)nc2cc(Cl)c(Cl)cc21 (stereo not drawn),-11.1
10,Cc1cc(SCC(=O)O)nc2ccccc12,20.9
11,CCOC(=O)c1sc(N)c(C(=O)Nc2ccccc2)c1C,1.36
12,O=C(/C=C/c1ccc(Cl)cc1)NCCCn1ccnc1,-14.1
13,CCC1=NC(c2ccc(Br)cc2)N(O)C1(C)C (stereo not drawn),7.13
14,CCOC(=O)N1CCN(S(=O)(=O)N2CCCC(C(=O)NCc3ccc(F)cc3)C2)CC1 (stereo not drawn),5.67
15,COc1ccc(CCC(=O)NCCS(=O)(=O)N2CCN(c3ccc(OC)cc3)CC2)cc1,10.8
16,COC(=O)c1sc(NC(=O)c2cc3c(s2)CCCC3)nc1C,8.25
17,CCNC(=S)N/N=C/c1ccc(F)cc1,8.05
18,Cc1ccc(N2CCN(CCc3ccccc3)CC2)cc1,-6.51
19,COc1ccc(C(=O)N/C(=C\c2cn(C)c3ccccc23)C(=O)NCCCN2CCOCC2)cc1,11.3
20,CCOC(=O)c1cc(C(=O)c2cc(Br)ccc2O)coc1=N,10.2
21,Cc1ccc(S(=O)(=O)N(C)CCCC(=O)N2CCOCC2)cc1,6.68
22,O=C(c1ccc(N2CCOCC2)cc1)c1cccs1,2.41
23,N#CCC(=O)NNC(=S)Nc1ccccc1C(F)(F)F,12.7

row,SMILES,"hERG current change (%, negative = inhibition) at 1uM [%]"
1,O=C(CN(C(=O)c1csnn1)c1cccc(Cl)c1)NCCc1ccccc1,2.68
2,COc1cccc(CN(C)C(=O)CN2C(=O)NC(c3ccccc3)(c3ccccc3)C2=O)c1OC,5.36
3,C[C@H](Nc1ccc(C(F)(F)F)cc1[N+](=O)[O-])C(=O)O.[Cl-],2.73
4,CC(C(=O)NCCN1CCOCC1)(c1ccccc1)c1ccccc1.Cl,11.1
5,COc1ccc(/C=C2/SC(=S)N(CCCC(=O)Nc3cccc(O)c3)C2=O)cc1,7.48
6,CN(C)S(=O)(=O)c1cccc(NC(=O)c2ccccc2OCc2ccc(F)cc2)c1,6.8
7,Cc1ccc(S(=O)(=O)N2CN3CCN(C3)C2)cc1,-5.75
8,O=C(NCc1ccccn1)c1ccc2c(=O)n3nc(Nc4ccccc4)sc3nc2c1,16.6
9,N#CC1=C(N)NC(SCC(=O)c2ccc(Br)cc2)=C(C#N)C12CCCCC2,7.45
10,Cc1ccccc1S(=O)(=O)Cc1ccc(C(=O)NCc2cccs2)o1,1.46
11,Cc1ccc(S(=O)(=O)N2CCCCC2)cc1C(=O)N1CCN(c2ccccn2)CC1,5.78
12,Cc1nccn1CC(=O)N/N=C/c1cc(Br)cs1,12
13,Cc1cccc(N=Nc2ccc(O)c3ncccc23)c1,5.68
14,Cc1ccc(-c2ccc(CCC(=O)O)n2-c2cccc(C(=O)O)c2)cc1,13.3
15,CCc1nnc(NC(=O)CSc2nnc3nc(C)cc(C)n23)s1,9.21
16,COc1ccc(/C=N/NC(=O)CNC(=O)c2ccc3c(c2)OCCO3)cc1OC,6.35
17,COc1ccc2nc(NC(=S)NC(=O)c3ccco3)sc2c1,11.4
18,CCOc1ccc(NC(=O)CN(C)CC(=O)NC(C)c2ccccc2)cc1OCC (stereo not drawn),-3.28
19,Cc1nc(NC(=O)CSc2nnnn2C)sc1C,12.3
20,Cc1ccc(NC(=O)Cn2cnc3c(cnn3C(C)(C)C)c2=O)cc1,8.41
21,CCOCC(=O)Nc1ccc([N+](=O)[O-])cc1OC,3.45
22,O=C(COc1ccc([N+](=O)[O-])cc1)Nc1nnc(-c2cccnc2)s1,4.14
23,O=C(CCc1c[nH]c2ccccc12)NCCc1ccc(O)cc1,6.51

row,SMILES,"hERG current change (%, negative = inhibition) at 1uM [%]"
1,Cc1cccc(N2CCN(C(=O)c3ccc(CS(=O)Cc4cccc(Cl)c4)o3)CC2)c1C (stereo not drawn),11.4
2,CCOS(C)(=O)=O,14.8
3,Clc1ccc(CNc2cnccn2)cc1Cl,13.5
4,COc1ccc(OC)c(Cc2nnc(CCC(=O)NC(C3CC3)C3CC3)o2)c1,10
5,CCN(CC)C(=O)c1sc2c(c1C)c(=O)n(-c1ccc(OC)cc1OC)c(=O)n2CC(=O)c1ccccc1,4
6,COC(=O)c1ccc(N2CCN(C)CC2)c(NC(=O)c2ccc(Br)o2)c1,-9.41
7,COCCNC(=S)N=Nc1c(O)[nH]c2c(C)cc(C)cc12,1.17
8,NS(=O)(=O)c1ccc(CNC(=S)NCc2ccc(Cl)cc2)cc1,-0.229
9,COc1ccc(CNS(=O)(=O)c2c(C(=O)N3CCCCC3)c(C)n(C)c2C)cc1,14
10,NS(=O)(=O)c1ccc(NC(=O)C(Sc2ccccc2)c2ccccc2)cc1 (stereo not drawn),11.4
11,Cc1ccccc1C(=O)N1CCC(C(=O)Nc2ccc(S(=O)(=O)N(C)C(C)C)cc2)CC1,4.71
12,O=C(Nc1cccc(Cl)c1)N1CCc2ccccc2C1,10.1
13,Cc1ccc2nc(NCc3ccccc3)c(C=O)c(=O)n2c1,1.77
14,CCC(Sc1nc2ccccc2[nH]1)C(=O)Nc1ccc(NC(C)=O)cc1 (stereo not drawn),5.01
15,CC(c1ccccc1)N1CC(C(=O)Nc2nccs2)CC1=O (stereo not drawn),-2.76
16,Cc1cc(/C=N/n2cnnc2)c(C)n1-c1ccc(OCc2ccc(Cl)cc2)cc1,7.74
17,O=C(NCCc1ccncc1)c1ccc2nc(Cc3cccc(Cl)c3)oc2c1,8.95
18,COc1ccc(NC(=O)NCCCCc2ccccc2)cc1OC,8.32
19,CC1=CC2=NC(=O)/C(=C\c3cc(C)n(-c4ccc(F)cc4)c3C)C(=N)N2O1,14.4
20,O=C1NC(=O)c2cc(NC(=O)c3cccc4ccccc34)ccc21,10
21,Cc1ccc(C(=O)NCCCN2CCN(CCCNC(=O)c3ccc(C)cc3)CC2)cc1,-36.5
22,CSC1=NC(C(Cl)(Cl)Cl)N=C(c2ccc(C)cc2)N1.Cl (stereo not drawn),10.3
23,O=C(Nc1ncn[nH]1)c1ccccc1O,4.56

row,SMILES,"hERG current change (%, negative = inhibition) at 1uM [%]"
1,COc1ccc(-c2nnc(NC(=O)c3ccco3)s2)cc1,16.6
2,COc1ccc(C(=O)Nc2cnc3ccccn3c2=O)cc1,9.6
3,N#Cc1nc(Cc2ccccc2)oc1N1CCC(Cc2ccccc2)CC1,18.5
4,COc1ccc(N2CCN(C(=O)CCN3C(=O)c4ccccc4S3(=O)=O)CC2)cc1.Cl,-2.05
5,O=C(NCc1ccco1)c1ccc(CNc2c(N3CCCCC3)c(=O)c2=O)cc1,7.74
6,O=[N+]([O-])c1cccc(-c2nc3ccccc3s/c2=N/O)c1,4.64
7,CCn1c(/C=C2\C(=O)N(C)c3ccccc32)nc2ccccc2c1=O,7.29
8,CCc1ccc(C(=O)C(C)OC(=O)CNS(=O)(=O)c2ccc(C)cc2)cc1 (stereo not drawn),9.83
9,Cc1ccc(-c2c(C#N)c(N)nc3c2CCCC3)o1,6.77
10,CCOC(=O)C(C)Sc1nnc(CSc2nc3nc(C)cc(C)n3n2)o1 (stereo not drawn),12.9
11,O=C(CN1CCc2ccccc2C1)Nc1ccccc1N1CCCCCC1.O=C(O)C(=O)O,-0.782
12,Cc1ccc(S(=O)(=O)CCC(=O)OCC(=O)NNC(=O)c2ccc([N+](=O)[O-])cc2)cc1,-1.62
13,O=C(O)C/C=C(/NC(=O)OCc1ccccc1)C(=O)OCc1ccccc1,3.07
14,CC(=O)c1ccc(N(CC(=O)NC2CCCC2)C(=O)CNC(=O)c2ccco2)cc1,9.11
15,O=C(c1ccc2c(=O)n(-c3ccccc3)c(=O)[nH]c2c1)N1CCCCC1,1.54
16,C=CCONC(=O)c1cc(OCC(F)(F)F)ccc1OCC(F)(F)F,-0.727
17,COCCCNC(=O)CS(=O)Cc1nc(-c2cccc(OC)c2)oc1C (stereo not drawn),5.9
18,O=C(O)c1ccc(Nc2nc(-c3cccnc3)cs2)cc1,-1.2
19,CCCCNC(=O)NNC(=O)COc1cc(C)cc(C)c1,8.03
20,O=C(CNc1cccc(S(=O)(=O)N2CCCCC2)c1)Nc1ccccc1F,10.3
21,CC1(C)O[C@@H]2C[C@H]3[C@@H]4CCC5=CC(=O)CC[C@]5(C)[C@@]4(F)[C@@H](O)C[C@]3(C)[C@]2(C(=O)CCl)O1,15.4
